# Source: the supplement of paper PMC10126150
# Values marked as one replicate rest on one cluster of the flow cell; about a third of the high ones do not repeat.
# System: ATP
# Assay: switch fluorescence ratio, 500 uM ATP over buffer (Cy3 cluster intensity, sum of 5 cycles each) (fold (ratio)); higher = stronger signal-on switching upon ATP binding; sequences stand for … in TCGTCGGCAGCGTCAGATGTGTATAAGAGACAGTTTTTTTTTTTTTTTTTTTTTTTTT…TC
# Conditions: aptamer strand: ATP DNA aptamer (quencher-CACCTGGGGGAGTATTGCGGAGGAAGG + anchor), 100 nM annealed; ATP concentration: 500 uM; one replicate
# Outline: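 The quencher-labelled ATP aptamer, at 100 nM, was annealed to Cy3-labelled switching-strand clusters on a modified Illumina MiSeq flow-cell. The clusters were imaged in selection buffer, then after 15 min with 500 uM ATP at 22 °C, and this buffer/ATP cycle ran five times with NaOH stripping and re-annealing between runs. Per-cluster fluorescence ratios, summed target-cycle over summed buffer-cycle Cy3 intensity, were averaged per switch-domain sequence. Clusters outside 100-1000 RFU were excluded.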
# 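Also: ATP exposure 15 min at 22 °C before imaging.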
row,Sequence,switch fluorescence ratio
1,TTGTGCCAAA,0.985
2,TTGTGCTAGT,0.988
3,TTGTGGGTCA,1.03
4,TTGTTACCTA,1.06
5,TTGTTAGCCG,1.18
6,TTGTTAGTA,1.02
7,TTGTTATAC,1.09
8,TTGTTCATCA,1.03
9,TTGTTGGTG,0.969
10,TTGTTTACGG,0.991
11,TTGTTTCGTC,1.02
12,TTGTTTGTCT,1.03
13,TTTAAAAACA,1.02
14,TTTAAACCAA,1.04
15,TTTAAACGAT,1.05
16,TTTAAAGGAA,0.969
17,TTTAAATTTC,1.03
18,TTTAAGAAA,0.959
19,TTTAAGCACT,1.22
20,TTTAAGTATG,1.03
21,TTTAAGTGAA,1.01
22,TTTAAGTTAG,0.977
23,TTTAATCCGG,1.01
24,TTTAATGACG,1.06

row,Sequence,switch fluorescence ratio
1,TTTAATGAGA,1.03
2,TTTACAGTTT,1.05
3,TTTACATGAG,1.02
4,TTTACCACCC,1.15
5,TTTACCGATT,1.03
6,TTTACGGTGG,1.05
7,TTTACTAATT,0.999
8,TTTACTATGT,1.03
9,TTTACTCAGG,1.1
10,TTTACTCTCG,1.03
11,TTTACTGACT,1.05
12,TTTAGAGTGG,0.995
13,TTTAGATG,1.01
14,TTTAGATTAA,1
15,TTTAGCATAG,1.88
16,TTTAGCCGTT,1.03
17,TTTAGCGGGA,0.993
18,TTTAGCTCTC,1.27
19,TTTAGGACCG,0.962
20,TTTAGGTAGC,1.03
21,TTTAGTATCG,0.978
22,TTTATAGACA,0.991
23,TTTATCCACT,1.06
24,TTTATCTCCG,1.16

row,Sequence,switch fluorescence ratio
1,TTTATGACCA,0.935
2,TTTATGACTA,1.01
3,TTTATGCCTC,0.973
4,TTTATGGTAG,0.987
5,TTTATGTGCC,0.986
6,TTTATTAGC,1.04
7,TTTATTATAC,1.07
8,TTTATTCGCC,0.977
9,TTTATTCTGA,0.967
10,TTTATTGGCC,0.998
11,TTTATTGGGG,0.951
12,TTTATTGGTC,0.952
13,TTTCAAAGGT,0.997
14,TTTCAACCC,1.06
15,TTTCAAGCGG,1.01
16,TTTCAAGGAA,0.993
17,TTTCAATGGG,1.05
18,TTTCAATTG,1.02
19,TTTCACGAGA,1.07
20,TTTCACGGCC,1.1
21,TTTCACTCTT,1.04
22,TTTCACTTAC,1.38
23,TTTCAGCGCG,0.986
24,TTTCAGTTAC,1.05

row,Sequence,switch fluorescence ratio
1,TTTCATAATG,0.981
2,TTTCATCGTG,1.02
3,TTTCATCTCC,1.05
4,TTTCATTATA,1.03
5,TTTCATTTCG,1.02
6,TTTCCATGCT,1.04
7,TTTCCCAC,1.01
8,TTTCCCGCTG,1.3
9,TTTCCGACTA,1.62
10,TTTCCTACGG,1.24
11,TTTCCTGGCA,1.13
12,TTTCGAGCG,1.02
13,TTTCGAGGT,0.973
14,TTTCGCCAGG,1.45
15,TTTCGCGTTT,0.988
16,TTTCGCTTCG,1.01
17,TTTCGGAATC,1.03
18,TTTCGGACTT,1.11
19,TTTCGGTT,0.982
20,TTTCGTATAG,1.28
21,TTTCGTGAGG,1.03
22,TTTCGTTTC,1.02
23,TTTCTAGAAG,1.03
24,TTTCTATGT,0.951

row,Sequence,switch fluorescence ratio
1,TTTCTCATCA,0.963
2,TTTCTGCGA,1.05
3,TTTCTGTAGG,1.01
4,TTTCTTAGAC,1.02
5,TTTCTTGAGG,0.941
6,TTTCTTTCAC,1.01
7,TTTCTTTTCC,1.08
8,TTTCTTTTTC,0.986
9,TTTGAAATAA,1.06
10,TTTGAAATCA,1.01
11,TTTGAAGATA,1.02
12,TTTGAAGTAG,1.02
13,TTTGAATCTA,0.993
14,TTTGACCGCC,1.85
15,TTTGACTCCC,1.03
16,TTTGACTGCT,1.01
17,TTTGAGATAT,0.993
18,TTTGAGGCTT,1.01
19,TTTGAGTTG,1.04
20,TTTGATAGAC,0.964
21,TTTGATGACT,1
22,TTTGCAATGA,3.91
23,TTTGCAGTGG,1.03
24,TTTGCCGATC,0.986

row,Sequence,switch fluorescence ratio
1,TTTGCCGTAC,0.969
2,TTTGCGAGGA,0.972
3,TTTGCGCATA,1.07
4,TTTGCGTGGT,1.04
5,TTTGCGTTCC,1.44
6,TTTGCTAGGC,1.02
7,TTTGCTGAAG,0.99
8,TTTGCTGGCA,0.964
9,TTTGGAAGAG,0.959
10,TTTGGACACT,1.03
11,TTTGGAGCCC,0.981
12,TTTGGATTGA,1.09
13,TTTGGCAACG,1.02
14,TTTGGCGGTA,0.981
15,TTTGGGCAGG,1.01
16,TTTGGGCGAC,1.01
17,TTTGGGGCCG,1.1
18,TTTGGGTACG,1.02
19,TTTGGGTGAA,1.03
20,TTTGGTAAGG,0.971
21,TTTGTACGAG,0.993
22,TTTGTAGGAA,1
23,TTTGTAGGTT,1.07
24,TTTGTCAGC,0.994

row,Sequence,switch fluorescence ratio
1,TTTGTCCGAA,1.06
2,TTTGTCCGCT,1.1
3,TTTGTCGAGT,1.01
4,TTTGTGAACC,1.01
5,TTTGTGAGAC,1.2
6,TTTGTGTTAA,1.1
7,TTTGTTCACC,0.966
8,TTTGTTCGCT,1.01
9,TTTGTTCTTG,0.958
10,TTTGTTGCCG,1.14
11,TTTGTTGTT,1
12,TTTTAACGGT,1.01
13,TTTTAAGCAC,1.28
14,TTTTACTCTC,1.07
15,TTTTACTGGG,1.07
16,TTTTAGATAA,1.06
17,TTTTAGCAT,0.991
18,TTTTAGCCTG,1.1
19,TTTTAGCGCA,1.04
20,TTTTAGCGGA,1.01
21,TTTTAGCTTG,1
22,TTTTAGCTTT,1.11
23,TTTTAGTGAT,0.981
24,TTTTATTCCA,0.965

row,Sequence,switch fluorescence ratio
1,TTTTCAGC,0.991
2,TTTTCAGCCT,1.07
3,TTTTCAGGGC,1.04
4,TTTTCAGTGA,0.961
5,TTTTCATCAC,1.02
6,TTTTCATGAC,1.04
7,TTTTCATTG,0.971
8,TTTTCCACAA,1.02
9,TTTTCGAAA,1.02
10,TTTTCTCCAT,1.02
11,TTTTCTGCGA,1.4
12,TTTTCTGGAT,1.03
13,TTTTCTT,0.999
14,TTTTGGGCGA,1.01
15,TTTTGTAGTA,0.959
16,TTTTGTCTTC,1.02
17,TTTTGTGATG,1.03
18,TTTTTAA,0.966
19,TTTTTAGACC,0.991
20,TTTTTATTT,0.996
21,TTTTTCATAG,1.02
22,TTTTTCTTT,0.988
23,TTTTTGCCCA,1.02
24,TTTTTTAAC,1.06
